This note sets out measurements from paper PMC9930429, “Wogonin attenuates the pathogenicity of Streptococcus pneumoniae by double‐target inhibition of Pneumolysin and Sortase A” (Journal of Cellular and Molecular Medicine, 2023).

The target of the test is Sortase A (SrtA) (Streptococcus pneumoniae, UniProt Q8DPM3). Kind of test: FRET peptidase assay, fluorescent peptide substrate. The format is biochemical. The conditions noted are these: wogonin 16-128 μg/mL; 5 μM SrtA; 10 μM substrate; 37 °C, 60 min.

The structures appear in SMILES notation.

For `COc1c(O)cc(O)c2c(=O)cc(-c3ccccc3)oc12` [wogonin], the “SrtA peptidase activity (%)” value is “the SrtA peptidase activity decreased in a gradient (Figure 3A)”.
